Among the data in PubChem BioAssay AID1346428 (National Center for Advancing Translational Sciences (NCATS), 2018) are activation values, retold here.

Molecules are shown by their SMILES. Hit rate of the full screen: of about 48,000 compounds, about 1,200 (2.5%) were called active. Another 2% or so got no clear call; they are omitted.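 How the source made its calls: active means activation of at least 60% and not above a set upper limit (about 1 call in 100 departs from these limits); inconclusive means activation of 40% to 60%, or above that upper limit; inactive means activation under 40%.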 The list shows a part of the results.

UniProt O75388, sequence (O75388 whole entry, looked up): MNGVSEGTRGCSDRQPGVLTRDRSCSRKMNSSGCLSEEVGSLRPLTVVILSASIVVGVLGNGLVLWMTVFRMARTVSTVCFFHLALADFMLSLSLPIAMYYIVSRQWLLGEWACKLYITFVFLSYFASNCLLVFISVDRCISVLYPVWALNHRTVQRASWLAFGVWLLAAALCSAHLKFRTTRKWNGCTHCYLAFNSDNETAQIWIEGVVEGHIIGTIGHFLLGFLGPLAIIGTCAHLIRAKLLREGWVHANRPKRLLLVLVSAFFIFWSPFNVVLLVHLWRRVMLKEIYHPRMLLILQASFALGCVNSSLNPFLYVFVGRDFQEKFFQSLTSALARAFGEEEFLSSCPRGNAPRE

For this assay, the target named is Probable G-protein coupled receptor 32 (Homo sapiens) (UniProt O75388). The experiment in a line: qHTS for Agonists of Human Resolvin D1 Receptor DRV1. Further: 0% is about no effect. Conditions: CHO-K1 GPR32 beta-arrestin PathHunter luminescence, 90 min; at 76.9 µM; active compounds read high; zero percent set by DMSO-only wells. The method, boiled down:
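CHO-K1 cells stably expressing ProLink-tagged GPR32 and Enzyme Activator-tagged beta-arrestin were seeded at 2,500 cells/well overnight, exposed to compounds for 90 min at 37 °C, then read by beta-Gal complementation chemiluminescence after 1 h detection reagent.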
(In qHTS, concentration-response curves come from the screen itself.)
With `Cc1ccccc1Nc1c(-c2ccco2)nc2c(C)cccn12`, the activation is inactive: -26.2%.
The value for `CCOC(=O)c1ccc(-n2c(C)nc3c(cnn3-c3ccc(Cl)cc3)c2=O)cc1` was inactive: 2.33%; that for `CCOCCCNC(=O)c1[nH]c2cc(C)ccc2c1Sc1ccc(Cl)cc1` was inactive: -4.62%; that for `Cc1cccc(NC(=O)Cn2c(=O)n(CCCS(=O)(=O)C3CCCCC3)c(=O)c3ccccc32)c1` was inactive: 20.9%.
Take `CCCCN(CCCC)CCNC(=O)Cn1nc(CC)n2c(cc3sc(C)cc32)c1=O`: the activation is inactive: -4.86%.
Consider `O=S1(=O)c2ccccc2N(Cc2cccc(C(F)(F)F)c2)c2ccccc21`, for which the activation was inactive: -58.8%.
Take `Cc1ccc(-c2onc(C)c2C)cc1S(=O)(=O)N1c2ccccc2CC1C` (stereo not drawn): the activation was inactive: -15.7%.
The value for `COc1ccc(C(=O)N2c3ccccc3C(C)(c3ccc(Cl)cc3)CC2(C)C)cc1` (stereo not drawn) was inactive: -31.3%; that for `COc1ccc(CCNC(=O)c2c(O)nc3c(C)cccn3c2=O)cc1` was inactive: 2.39%; that for `CCOCCc1nn2c(=O)cc(COC(=O)c3ccccc3NC(=O)C3CCCCC3)nc2s1` was inactive: -19.7%.
The value for `CN(C)CCNC(=O)Cn1c(=O)c2cccn2c2ccc(F)cc21` was inactive: -8.42%.
As for `COc1cc(OC)c(N(C)C(=O)CCNC(=O)Cn2cnc3ccccc3c2=O)cc1Cl`, the activation was inactive: 17.9%.
As to `O=C(NCCn1cc(SCc2ccc(Cl)cc2)c2ccccc21)c1cccs1`, the activation is inactive: -13.3%.
On to `COc1cccc(-c2nc(SCC(=O)Nc3ccc4c(c3)OCCO4)c(-c3ccccc3)[nH]2)c1`, for which the activation was inactive: -21%.
The figure for `CCOc1ccc(CCNC(c2cccc(Cl)c2)c2nnc(-c3ccccc3)o2)cc1OCC` (stereo not drawn) is inactive: -1.88%.
The figure for `Cc1coc2c(C)c3oc(=O)c(CCC(=O)NCCc4ccccc4)c(C)c3cc12` is inactive: -16.7%.
As to `Cc1nn(C(=O)c2ccc(Br)cc2)c(C)c1S(=O)(=O)N1CCOCC1`, the activation is inactive: -6.49%.
Turning to `CCc1ccc(-c2[nH]c3c(c2-c2sc(C)c(C(=O)OC)c2O)c(=O)[nH]c(=O)n3C)cc1`, the activation was inactive: -9.78%.
As for `CCCCN(CCCC)S(=O)(=O)c1ccc2oc(C(=O)NCc3ccc(C)cc3)c(C)c2c1`, the activation is inactive: -11.5%.
The value for `COc1cccc(/C=C/c2nc(C#N)c(NCCc3ccc(OC)c(OC)c3)o2)c1` was inactive: 35.8%; that for `COC(=O)c1ccc2c(c1)N(Cc1ccc(F)cc1)C(=O)c1ccccc1S2` was inactive: -4.65%; that for `Cn1c(NCCO)nc2c1c(=O)n(Cc1cccc(F)c1)c(=O)n2C` was inactive: -68.9%.
The value for `CCOc1ccc(CCNC(=O)c2cnc3c(-c4ccc(F)cc4)c(C)nn3c2C)cc1OCC` was inactive: -19.1%.
